Results on 24 compounds are retold here after PubChem BioAssay AID2202238 (Ras Initiative Chemistry Research Team, Frederick National …, 2025).

The target in the assay is GTPase KRas (Homo sapiens) (UniProt P01116). In words: Covalent labelling of cysteine mutants by fragments, read by mass spectrometry (AID 2202238). Further details: protein at 5 µM with 500 µM competing thiol for 1.5 h. Particulars: KRAS G12D cysteine mutants, disulfide tethering, MALDI-TOF labeling, stronger effect = higher value, fragment at 500 µM.
UniProt P01116, sequence (P01116 whole entry, looked up, the tested form may be a part): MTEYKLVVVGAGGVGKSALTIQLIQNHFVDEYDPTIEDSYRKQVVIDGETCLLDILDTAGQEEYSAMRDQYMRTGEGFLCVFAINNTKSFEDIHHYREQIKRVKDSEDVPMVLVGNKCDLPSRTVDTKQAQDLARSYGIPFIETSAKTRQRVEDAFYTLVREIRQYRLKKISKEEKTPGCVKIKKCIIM
[1] abbreviates: measured here: G60C mutant labeling.
Setting [2] is: measured here: G75C mutant labeling.
Setting [3] is: measured here: H94C mutant labeling.
The mark [4] stands for this setting: measured here: I36C mutant labeling.
[5] abbreviates: measured here: L120C mutant labeling.
Setting [6] is: measured here: M67C mutant labeling.
Where [7] appears, read: measured here: M72C mutant labeling.
The mark [8] stands for this setting: measured here: N26C mutant labeling.
Where [9] appears, read: measured here: N86C mutant labeling.
Where [10] appears, read: measured here: P121C mutant labeling.
Where [11] appears, read: measured here: S122C mutant labeling.
The mark [12] stands for this setting: measured here: S136C mutant labeling.

Structures are written as SMILES. Some of the results follow. Shown are side measurements of this screen, not its main read-out; they come without a call.

`O=C(Cc1ccc(C(F)(F)F)nc1)NCCS` yielded a percent labeling under setting [1] of 26.9%; a percent labeling under setting [2] of 9.8%; a percent labeling under setting [3] of 29.7%; a percent labeling under setting [4] of 26.9%; a percent labeling under setting [5] of 33.9%; a percent labeling under setting [6] of 29.8%. Also, the percent labeling reads like this: under setting [7], 21.4%; under setting [8], 33.6%; under setting [9], 19.7%; under setting [10], 32.2%; under setting [11], 26.6%; under setting [12], 37.7%.

For `Cc1nc2ccnn2c(C)c1CCC(=O)NCCS`, the percent labeling came out at 35.1% under setting [1]; 12.8% under setting [2]; 27.6% under setting [3]; 35.8% under setting [4]; 26.3% under setting [5]; 30.8% under setting [6]. Besides, the percent labeling came out at 21.2% under setting [7]; 36.7% under setting [8]; 21.5% under setting [9]; 33.5% under setting [10]; 27.2% under setting [11]; 41.7% under setting [12].

`CN1C(=O)c2ccccc2Sc2ccc(NC(=O)CCS)cc21`: the percent labeling reads like this: under setting [2], 11.7%; under setting [3], 11%; under setting [4], 41.6%; under setting [5], 9.6%; under setting [6], 26.6%; under setting [7], 38%. The percent labeling is, setting by setting: under setting [9], 13.3%; under setting [10], 11.2%; under setting [11], 5.8%; under setting [12], 23.9%.

In the case of `O=C(NCCS)c1csc(-c2ccc(Cl)cc2)c1`, the percent labeling runs as follows: under setting [1], 17.6%; under setting [2], 6%; under setting [3], 9.6%; under setting [4], 9.6%; under setting [5], 10.9%; under setting [6], 8.5%. Also, the percent labeling reads like this: under setting [7], 54.1%; under setting [8], 29.5%; under setting [9], 9.5%; under setting [10], 9.1%; under setting [11], 7.2%; under setting [12], 13.9%.

Regarding `O=C(CCS)NCCn1ncc2ccccc2c1=O`, the percent labeling reads like this: under setting [2], 11.8%; under setting [3], 30.1%; under setting [4], 43.8%; under setting [5], 38.2%; under setting [6], 41.5%; under setting [7], 25.7%. The percent labeling came out at 29% under setting [9], 36.5% under setting [10], 33.8% under setting [11] and 60% under setting [12].

For the compound `CN(C)c1noc(C2CN(C(=O)CCS)C2)n1`, the percent labeling is 12.3% under setting [2]; 19.7% under setting [3]; 25.4% under setting [4]; 23.2% under setting [5]; 28.7% under setting [6]; 16.2% under setting [7]. For the same compound, the percent labeling runs as follows: under setting [9], 21%; under setting [10], 28.6%; under setting [11], 34.9%; under setting [12], 48.2%.

On to `O=C(CCS)Nc1cccc(-n2cccc2)c1`, for which the percent labeling by setting is: under setting [2], 15.8%; under setting [3], 20.4%; under setting [4], 17.4%; under setting [5], 7.4%; under setting [6], 9.2%; under setting [7], 47%. The percent labeling reads like this: under setting [9], 8.3%; under setting [10], 16.1%; under setting [11], 13.5%; under setting [12], 28.8%.

With `O=C(CCS)NCCc1cc(Cl)sc1Cl`, the percent labeling runs as follows: under setting [2], 16.9%; under setting [3], 32.8%; under setting [4], 29.8%; under setting [5], 32.1%; under setting [6], 33%; under setting [7], 58.9%. Further, the percent labeling worked out at 20.9% under setting [9], 30.2% under setting [10], 22.5% under setting [11] and 43.7% under setting [12].

Consider `O=C(CCS)NC1CCC2(CC1)COCCO2` (stereo unspecified), for which the percent labeling is 8.2% under setting [2]; 28.5% under setting [3]; 33.6% under setting [4]; 26.6% under setting [5]; 28.1% under setting [6]; 14.4% under setting [7]. In addition, the percent labeling runs as follows: under setting [9], 19.3%; under setting [10], 32%; under setting [11], 38.7%; under setting [12], 48.6%.

For `O=C(NCCS)C1CCCN1C1CCOCC1` (stereo unspecified), the percent labeling stood at 23.2% under setting [1]; 11.1% under setting [2]; 35.4% under setting [3]; 23.4% under setting [4]; 32.9% under setting [5]; 30.2% under setting [6]. Further, the percent labeling under setting [7] turned out to be 16.9%; the percent labeling under setting [8] is 27.4%; the percent labeling under setting [9] turned out to be 21.7%; the percent labeling under setting [10] was 29.2%; the percent labeling under setting [11] was determined as 26.4%; the percent labeling under setting [12] amounted to 40.8%.

Turning to `O=C(NCCS)C1CCN(C2CCCCC2)C1` (stereo unspecified), the percent labeling stood at 38.3% under setting [1]; 20.7% under setting [2]; 38% under setting [3]; 45.7% under setting [4]; 30.2% under setting [5]; 40.4% under setting [6]. Further, the percent labeling by setting is: under setting [7], 22.8%; under setting [8], 46.5%; under setting [9], 24.3%; under setting [10], 34.4%; under setting [11], 25.6%; under setting [12], 54.5%.

With `O=C(Cn1cc(Br)cn1)NCCS`, the percent labeling by setting is: under setting [1], 37.9%; under setting [2], 12.7%; under setting [3], 32.4%; under setting [4], 27.1%; under setting [5], 53.4%; under setting [6], 26.9%. For the same compound, the percent labeling by setting is: under setting [7], 18.8%; under setting [8], 37.3%; under setting [9], 28.7%; under setting [10], 31.6%; under setting [11], 29.5%; under setting [12], 39.2%.

As to `Cc1nn(-c2cncc(Cl)n2)c(C)c1CC(=O)NCCS`, the percent labeling by setting is: under setting [1], 28.2%; under setting [2], 13.7%; under setting [3], 19.9%; under setting [4], 14.2%; under setting [5], 20.9%; under setting [6], 14.3%. Moreover, the percent labeling came out at 20.9% under setting [7]; 24.6% under setting [8]; 12.2% under setting [9]; 15.2% under setting [10]; 9.6% under setting [11]; 16.4% under setting [12].

Regarding `N#Cc1cc(Oc2ccc(CC(=O)NCCS)cc2)ccn1`, the percent labeling by setting is: under setting [1], 41.9%; under setting [2], 14.5%; under setting [3], 29.1%; under setting [4], 20.5%; under setting [5], 30.7%; under setting [6], 22.4%. Moreover, the percent labeling under setting [7] came to 38.5%; the percent labeling under setting [8] is 35.7%; the percent labeling under setting [9] was 19.7%; the percent labeling under setting [10] was 22.3%; the percent labeling under setting [11] was determined as 17.6%; the percent labeling under setting [12] came out at 26.3%.

As to `Cc1[nH]c2c(Cl)ccc(Cl)c2c1CCNC(=O)CCS`, the percent labeling is 14.4% under setting [2]; 27% under setting [3]; 19.8% under setting [4]; 11.3% under setting [5]; 18.7% under setting [6]; 42.9% under setting [7]. Moreover, the percent labeling came out at 15% under setting [9], 21.4% under setting [10], 6.1% under setting [11] and 32.8% under setting [12].

As for `COc1ccc(C)cc1C1(C)NC(=O)N(CC(=O)NCCS)C1=O` (stereo unspecified), the percent labeling by setting is: under setting [1], 35.4%; under setting [2], 11.8%; under setting [3], 32.4%; under setting [4], 22.8%; under setting [5], 38.3%; under setting [6], 25.8%. In addition, the percent labeling is, setting by setting: under setting [7], 21.8%; under setting [8], 33.1%; under setting [9], 23.5%; under setting [10], 28.5%; under setting [11], 33.2%; under setting [12], 37.9%.

On to `Cc1nc2nccc(C(=O)NCCS)c2[nH]1`, for which the percent labeling is, setting by setting: under setting [1], 33.9%; under setting [2], 38.7%; under setting [3], 37.9%; under setting [4], 29.3%; under setting [5], 31.6%; under setting [6], 34.7%. The percent labeling runs as follows: under setting [7], 45.7%; under setting [8], 48.7%; under setting [9], 25%; under setting [10], 29.5%; under setting [11], 27.8%; under setting [12], 55.4%.

The compound `CC(Cc1cncc2ccccc12)C(=O)NCCS` (stereo unspecified) came in with a percent labeling under setting [1] of 44.9%; a percent labeling under setting [2] of 20.3%; a percent labeling under setting [3] of 36.4%; a percent labeling under setting [4] of 39.4%; a percent labeling under setting [5] of 28.6%; a percent labeling under setting [6] of 36.8%. In addition, the percent labeling by setting is: under setting [7], 37.7%; under setting [8], 39.3%; under setting [9], 29.8%; under setting [10], 38.6%; under setting [11], 27.8%; under setting [12], 44.8%.

In the case of `O=C(CCS)Nc1ccn(CCN2CCOCC2)n1`, the percent labeling is 12.8% under setting [2]; 36.4% under setting [3]; 37.5% under setting [4]; 34.5% under setting [5]; 34.6% under setting [6]; 20.4% under setting [7]. Besides, the percent labeling is, setting by setting: under setting [9], 26.5%; under setting [10], 29.5%; under setting [11], 35.1%; under setting [12], 42.5%.

As to `O=C(CCS)N1CCc2sccc2C1c1ccc(Cl)cc1` (stereo unspecified), the percent labeling by setting is: under setting [2], 24.6%; under setting [3], 30.9%; under setting [4], 25.6%; under setting [5], 19.9%; under setting [6], 22.5%; under setting [7], 32.3%. The percent labeling turned out to be 18.2% under setting [9], 21.9% under setting [10], 5.3% under setting [11] and 41.5% under setting [12].

For the compound `O=C(CCS)Nc1cc2c(cc1Cl)OCO2`, the percent labeling worked out at 20.3% under setting [2]; 29.5% under setting [3]; 36.3% under setting [4]; 19.8% under setting [5]; 24% under setting [6]; 42.1% under setting [7]. This compound also returned a percent labeling under setting [9] of 18.9%, a percent labeling under setting [10] of 23%, a percent labeling under setting [11] of 23.5% and a percent labeling under setting [12] of 45.9%.

Take `Cn1cc(NC(=O)CCS)c(Oc2ccccc2)n1`: the percent labeling is, setting by setting: under setting [2], 14%; under setting [3], 36.8%; under setting [4], 35.9%; under setting [5], 36.3%; under setting [6], 38.7%; under setting [7], 39.1%. Further, the percent labeling under setting [9] was determined as 18.4%, the percent labeling under setting [10] was 34.4%, the percent labeling under setting [11] turned out to be 33.7% and the percent labeling under setting [12] is 62.9%.

In the case of `CC1CCC(C)N1CC(=O)NCCS` (stereo unspecified), the percent labeling was 46.9% under setting [1]; 32.4% under setting [2]; 46.4% under setting [3]; 40.5% under setting [4]; 31.4% under setting [5]; 41.6% under setting [6]. Moreover, the percent labeling worked out at 38.8% under setting [7]; 42.4% under setting [8]; 31.6% under setting [9]; 34.8% under setting [10]; 33% under setting [11]; 49.4% under setting [12].

Compound `O=C(NCCS)c1cnc(C2CCOCC2)nc1` had a percent labeling under setting [1] of 27.2%; a percent labeling under setting [2] of 14%; a percent labeling under setting [3] of 27%; a percent labeling under setting [4] of 26.9%; a percent labeling under setting [5] of 33.1%; a percent labeling under setting [6] of 32.3%. Besides, the percent labeling runs as follows: under setting [7], 27.3%; under setting [8], 41.1%; under setting [9], 23.3%; under setting [10], 31.4%; under setting [11], 30.1%; under setting [12], 46.4%.
